Data set [1] concerns CCR2 expressing cells vs CCR2-negative HEK cells. Description: Cell binding, CCR2 expressing cells versus CCR2-negative HEK cells. The following applies: MFI at 2.5 μM, DyLight-650 labeled. The procedure: FIG. 2. Identification and characterization of 58C-scFv binding to CCR2. (A) Phage ELISA of clones generated through affinity selection using a scFv library. […] (E) 58C-scFv binding to RAW 264.7 (F) and MDA-MB-231 cells was concentration-dependent. (G) Mean fluorescent intensity (MFI) following incubation of HEK, MDA-MB-231, and Raw264.7 cells with the DyLight-650 labeled 58C-scFv. The MFI was determined at 2.5 μM for MDA-MB-231 and HEK, and RAW 264.7 cells. Data are represented as mean±sd, *p<0.05, **p<0.01, ***p<0.001 with one-way ANOVA followed by Dunnett's post-test.
(§1) Cells were detached with 5 mM EDTA and re-suspended in PBS to a concentration of 50,000 cells per 300 μL. Cells were plated in a 48-well plate and incubated for 30 min at 4° C. After removing the PBS solution, the cells were incubated with various dilutions of DyLight 650 NHS Ester labeled 58C-scFv for 1 h at 4° C. Cells were washed three times with 5% BSA, detached with EDTA, and analyzed in the APC channel of a MACSQuant Analyzer 10 flow cytometer (Miltenyi Biotec, Bergisch Gladbach, Germany).

For data set [2] the following is noted: mouse, in vivo.
The next data set deals with T1, human CCR2 (Homo sapiens, UniProt P41597).
T1 construct: endogenous in cells; host or cells: MDA-MB-231 human breast cancer cells
T1 sequence (P41597 whole entry): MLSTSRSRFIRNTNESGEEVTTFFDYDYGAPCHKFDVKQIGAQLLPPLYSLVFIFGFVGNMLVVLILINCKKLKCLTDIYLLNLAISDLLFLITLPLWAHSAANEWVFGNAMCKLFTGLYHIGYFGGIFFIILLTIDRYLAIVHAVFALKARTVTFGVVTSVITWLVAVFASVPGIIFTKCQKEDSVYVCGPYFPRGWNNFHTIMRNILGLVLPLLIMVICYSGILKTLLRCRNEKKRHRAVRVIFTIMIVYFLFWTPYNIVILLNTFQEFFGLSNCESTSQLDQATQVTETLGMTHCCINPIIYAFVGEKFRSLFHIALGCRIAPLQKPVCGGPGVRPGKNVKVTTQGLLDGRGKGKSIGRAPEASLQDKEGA
In words: Cross-reactivity with human CCR2. In kind it is binding.

Data set [3] has as its system MDA-MB-231 breast cancer cells. Description: Cell binding analysis by flow cytometry, MDA-MB-231. The following applies: fluorescently labeled scFv. Set-up: species or system human. The procedure: as §1
On the technique in general: In flow cytometry, cells or beads pass a laser one at a time.

For data set [4], the target named is T2, N-terminal domain of CCR2 (Mus musculus, UniProt P51683).
T2 construct: ABclonal, Woburn, MA); purchased ABclonal, Woburn, MA
T2 sequence (P51683 1-45): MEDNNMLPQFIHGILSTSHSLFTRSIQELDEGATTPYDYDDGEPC
In words: ELISA binding to biotinylated N-terminal domain CCR2 peptide (phage and recombinant scFv). Details: species or system murine. Conditions: phage clones, top five binders. As for the experimental part: Biotinylated N-terminal CCR2 domain was captured on magnetic streptavidin coated beads and four rounds of affinity selections were performed as previously described.^24 The selection was performed at room temperature using a phage display library that was constructed from peripheral human blood lymphocytes and that expresses single-chain fragments of antibodies. To identify CCR2 N-terminal domain binders, single bacterial colonies were picked after the fourth round of selection for phage amplification followed by a phage enzyme-linked immunosorbent assay (ELISA). Clones that yielded a signal above background were sequenced and further analyzed with regard to binding affinity.
Nunc MaxiSorp 96-well plates were coated with NeutrAvidin at 5 μg/mL and incubated overnight at 4° C. The plate was thoroughly washed with 0.1% PBS-Tween (PBST), and 5 μg/mL biotinylated N-terminal domain CCR2 peptide ([…] (SEQ ID NO:58); ABclonal, Woburn, MA) added and incubated for 1 h at room temperature. The wells were washed with 0.1% PBST and then blocked with casein blocking buffer for 1 h at room temperature. The wells were washed with 0.1% PBST followed by incubation of serially diluted scFv for 1 h at room temperature before being washed five times with 0.1% PBST. […] The absorbance was measured at 450 nm with a FilterMax F3 & F5 multi-mode microplate reader (Molecular Devices, Sunnyvale, CA). […]
For orientation: ELISA stands for enzyme-linked immunosorbent assay.

For data set [5], the system named is RAW 264.7 murine macrophages. In words: Transwell migration assay, RAW 264.7, CCL2 chemoattractant. The following applies: for inhibition of migration: RAW 264.7, highest concentration tested, CCL2 chemoattractant. In kind it is cell-based, mouse. The procedure:
(§2) Cells were serum starved for 24 h before being detached with 5 mM EDTA in PBS and re-suspended in transwell medium (DMEM without phenol red, 25 mM HEPES, and 0.1% BSA) at a concentration of 70×10^4 cells per 100 μL. Cells were incubated with various concentrations of scFv for 30 min at 4° C. and then added to the apical chamber of either a 5 μm (RAW 264.7) or 8 μm (MDA-MB-231) pore transwell plate (Milipore Sigma, Burlington, MA). The basolateral compartment contained 25 nM of CCL2 in serum-free medium to induce chemotaxis. Cells were incubated at 37° C. with 5% CO2 for either 4 h (RAW 264.7) or 21 h (MDA-MB-231). After incubation, the cells in the apical chamber were removed and the wells were placed in a new feeder tray containing pre-warmed cell detachment solution. Wells were incubated with cell detachment buffer for 30 min at 37° C. with occasional rocking to detach migrated cells. Then, lysis buffer and dye solution were added to the detachment solution containing the migrated cells. The solution was incubated for 15 min and fluorescence measured on a SpectraMax microplate reader (Molecular Devices) with an excitation/emission of 480/520.

For data set [6], the system named is MDA-MB-231 breast cancer cells. In words: Transwell migration assay, MDA-MB-231, CCL2 chemoattractant. In kind it is cell-based, human. The following applies: MDA-MB-231, highest concentration tested. As for the experimental part:
as §2

Data set [7] relates to RAW 264.7 mouse macrophages. In words: Macrophage polarization, RT-PCR of M1/M2 marker genes, RAW 264.7. In kind it is cell-based. As for the experimental part:
RAW 264.7 mouse macrophages were incubated with either LPS (100 ng/mL), IL-4 (20 ng/mL; PeproTech, Rocky Hill, NJ), or 58C-scFv (1 μM) for 24 h. For the multivalency studies, RAW 264.7 mouse macrophages were first incubated with IL-4 (20 ng/mL) for 24 h to stimulate an M2 phenotype. Following the 24 h incubation, fresh media with 58C-scFv (89 nM) was added to the cells and incubated for an additional 24 h. Total RNA was isolated with QIAzol lysis reagent (Qiagen, Germany) and total cDNA was generated using the New England Biolabs first stand synthesis kit (Ipswich, MA). RNA expression was detected by reverse transcription (RT)-PCR performed with the SYBR Green PCR kit (Qiagen). For each sample, the ΔΔCt value was calculated. Experiments were performed in triplicate. The primers were: β-actin (forward: 5′-ccctgtatgcctctggtc-3′(SEQ ID NO:10), reverse: 5′-gtctttacggatgtcaacg-3′(SEQ ID NO:11)), iNOS (forward: 5′-[…]-3′(SEQ ID NO:12), reverse: 5′-[…]-3′(SEQ ID NO:13)), IL-6 (forward: 5′-[…]-3′(SEQ ID NO:14), reverse: 5′-[…]-3′(SEQ ID NO:15)), ARG-1 (forward: 5′-[…]-3′(SEQ ID NO:16), reverse: 5′-[…]-3′(SEQ ID NO:17)), MGL2 (forward: 5′-[…]-3′(SEQ ID NO:18), reverse: 5′-[…]-3′(SEQ ID NO:19)).
To assess the effects of the anti-CCR2 scFvs on macrophage polarization, RAW 264.7 and bone marrow-derived macrophages (BMDMs) were treated with NTD-scFv and ECL2-scFv. Inducible nitric oxide synthase (iNOS) and interleukin 6 (IL-6) were used as M1 markers. Arginase 1 (Arg1) and macrophage galactose N-acetyl-galactosamine-specific lectin 2 (Mgl2) were used as M2 markers. […] To determine whether these changes were additive, synergistic, or antagonistic, the combination indices (CI) were calculated for NTD-scFv and ECL2-scFv by treating cells with a combination of NTD-scFv and ECL2-scFv. CI was calculated by: CI=(CA,X/ICX,A)+(CB,X/ICX,B), where CA,X and CB,X are the concentration of drug A (in this case NTD-scFv) and B (here, ECL2-scFv) used in combination to achieve x % drug effect. ICX,A and ICX,B are the concentrations for the single scFvs to achieve the same effect. CI<1 indicates synergy, CI=1 indicates additivity, and CI>1 indicates antagonism. […] These studies were performed in RAW 264.7 cells (FIG. 17A, B, C), but similar results were found for bone marrow-derived macrophages isolated from BALB/c mice (FIG. 17D). As shown by the isobolograms, the M1 polarization effects occurred at lower doses when NTD-scFv was used in combination with ECL2-scFv.

For data set [8] the following is noted: mouse, in vivo. The source holds these as a separate data set.
In data set [9] the test system is 4T1 breast cancer cells in the mammary fat pad. In words: 4T1 breast tumor treatment with unmodified NTD-scFv. The following applies: 1.25 mg/kg, five doses at two-day intervals, tail vein. In kind it is in vivo, female BALB/c mice. As for the experimental part:
To assess the therapeutic efficacy of the NTD-scFv, female BALB/c mice harboring 4T1 breast cancer cells in the mammary fat pad were treated with NTD-scFv when the tumor sizes reached 150 mm^3. The NTD-scFv was administered via tail vein injection. Mice received five doses of NTD-scFv at two-day intervals at 1.25 mg/kg. PBS-treated mice served as controls.

Data set [10] has as its system RAW 264.7 macrophage cells. In words: Cell binding analysis by flow cytometry, RAW 264.7. Set-up: species or system mouse. Conditions: fluorescently labeled scFv. As for the experimental part: FIG. 13. Binding of monomeric 58C-scFv (circles), low valency 58C-scFv attached to liposomes (triangles), and high valency 58C-scFv attached to liposomes (squares) to RAW 264.7 macrophage cells as determined by flow cytometry. […] The liposomes were incubated with DyLight 650 NHS Ester labeled 58C-scFv at 4° C. overnight. Cells were detached with 5 mM EDTA and re-suspended in PBS to a concentration of 50,000 cells per 300 μL. The cells were incubated with various dilutions of DyLight 650 NHS Ester labeled 58C-scFv (free, low degree of valency, or high degree of valency) for 1 h at 4° C. Cells were washed three times with 5% BSA and analyzed in the APC channel of a MACSQuant Analyzer 10 flow cytometer (Miltenyi Biotec, Bergisch Gladbach, Germany).
as §1

“Also recorded” adds a separate entry of the source.

B1: 58C-scFv: scFv against the N-terminal domain of CCR2, SEQ ID NO:5 (shortened SEQ ID NO:57) (protein, listed as Homo sapiens)
scFv: MKKTAIAIAVALAGFATVAQADYKDDDDKL[about 100 residues skipped]GKSSGSGSESKASEVQLLESGAEVKKPGASVKVSCKTSGYTFTTYDIYWMRLATGQRLEWMGWVNPDNGKTDYAQKFQGRVTISRDSSINTVFMELSNLRLEDTAIYFCARALTRWQQSPLGYWGQGTLVTVSSVEASAAALDYKDDDDKLDHHHHHH
Turning to B1, the “binding to CCR2 expressing cells compared with CCR2-negative HEK cells” value in data set [1] is on record as “significantly higher binding”. Besides, in data set [2], the “distribution half-life t1/2 (α)” value came out at 36 s and the “elimination half-life t1/2 (β)” value is 16 h. In addition, in the data set with human CCR2, the “cross-reactivity, binding to human CCR2” value is listed as “bind to human CCR2”. Besides, in data set [3], the “binding to MDA-MB-231 cells” value was “bound with concentration dependence; also recorded: concentration-dependent”. For the same molecule, the “affinity by phage ELISA” value in [4] was “highest affinity”. In [5] (RAW 264.7), the “higher inhibition of macrophage migration than a commercially available CCR2-targeted antibody” value is on record as 40-60%. Besides, the inhibition of migration entry in data set [5] is listed as “approximately 75%”. Moreover, the inhibition of migration in data set [5] (listed as NTD-scFv) is given as about 75%. In addition, the inhibition of migration result in [6] is listed as “approximately 75%”. Further, in data set [7] (RAW 264.7, 1 μM, 24 h), the “M1/M2 ratio IL-6/Arg-1, increase over the negative control” value is on record as 3.4×10^5 fold; the “M1/M2 ratio IL-6/Mgl2, increase over the negative control” value is 1.7×10^6 fold; the “M1/M2 ratio iNOS/Arg-1, increase over the negative control” value is on record as 1.0×10^4 fold; the “M1/M2 ratio iNOS/Mgl2, increase over the negative control” value was 5.1×10^4 fold. In data set [7] (RAW 264.7, 24 h, LPS 100 ng/mL, IL-4 20 ng/mL, 58C-scFv 1 μM), the “macrophage polarization, M1/M2 gene expression compared to the untreated control” value is reported as “polarized macrophages to the M1 phenotype”. For the same molecule, the “macrophage polarization on co-incubation with IL-4” value in [7] (RAW 264.7, compared to IL-4 only control) is “able to polarize macrophages back to an M1 phenotype”. Besides, in data set [7] (RAW 264.7 first polarized to M2 with IL-4), the “shift of macrophage phenotype measured by the M1/M2 gene ratio” value is “shifted the macrophage phenotype from M2 to M1”. For the same molecule, the “increase of M1/M2 ratios compared to commercially available CCR2-targeted antibodies” value in [7] (same molar concentration, listed as NTD-scFv) is listed as 7 fold. In data set [8], the “deposition in the kidneys” value is reported as “high deposition” and the tumor deposition result is “cannot be detected”. Further, the “tumor size compared with PBS-treated mice” value in data set [9] was “significantly smaller”. Besides, the “binding to RAW 264.7 cells” value in data set [10] is “bound with concentration dependence; also recorded: concentration-dependent”.

The record behind these values is patent publication US12428485B2, “Compositions and methods to block and bind CCR2 to modulate cellular function” (The Research Foundation for The State University of New York, priority 2019, dated 2025).
